# Values joined by “and” are separate entries in the source; they are usually repeats but may differ in a detail not shown here. Identical values can stand only once. This list was built around the results that the source calls inconclusive (neither active nor inactive); the mix of calls is not that of the screen. Potencies beside an inconclusive call are fits to weak or partial responses and may not hold up. More than one record can exist for a structure, and the calls need not agree. Active and inactive are the calls of the source. The call rests on the fitted dose curve; in most records, active means well fitted curve in the direction sought with a large enough effect; inconclusive means small, poorly fitted or top-dose-only effect, or another doubt; inactive means no such curve, though single readings can be large; an effect the other way counts as inactive or inconclusive.
# Experiments:
# [1] = test system: HaCat; test: Cytotoxic Profiling of Annotated Libraries Using Quantitative High-Throughput Screening (AID 1296008); details: Five cell lines viability, CellTiter-Glo ATP luminescence, 48-72 h; max response: stronger effect = lower value; further: nearly all actives have a fitted effect of over 60% in size
# Procedure, shortened: (§1)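 Cells exposed to compounds for 48 or 72 hr at 37 degrees Celsius. Viability read as ATP-coupled luminescence with CellTiter-Glo after 10 min at room temperature.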
# [2] = test system: NIH3T3; test: as above; details: Five cell lines viability, CellTiter-Glo ATP luminescence, 48-72 h; max response: stronger effect = lower value
# Procedure, shortened: as §1
# [3] = test system: MKL-1; test: qHTS assay to identify novel small-molecules to repurpose for Merkel cell carcinoma treatment (AID 1296009); details: MCC and control cell lines, CellTiter-Glo viability, 72 h; series mostly up to 46 µM; further: nearly all actives have a fitted effect of over 60% in size
# Procedure, shortened: (§2)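 CellTiter-Glo luminescence after 72 hr compound exposure at 37 degree celsius gave cell viability. Libraries NPC and MIPE were run as 8- and 11-point dose responses; RLUs normalized to DMSO (negative) and no-cell (cytotoxicity) controls.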
# [4] = test system: MKL-2; test: as above; details: MCC and control cell lines, CellTiter-Glo viability, 72 h; activity change, negative = cytotoxicity: at 46 µM (top of the series)
# Procedure, shortened: as §2
# [5] = test system: UISO; test: as above; details: MCC and control cell lines, CellTiter-Glo viability, 72 h; series mostly up to 46 µM
# Procedure, shortened: as §2
# [6] = test system: WaGa; test: as above; details: MCC and control cell lines, CellTiter-Glo viability, 72 h; series mostly up to 46 µM
# Procedure, shortened: as §2
# [7] = test system: HeLa; test: Primary qHTS to identify gynecologic anti-cancer compounds using libraries of approved drugs and bioactive compounds (AID 1345084); details: Gynecologic cancer cell panel viability, ATPlite luminescence, 48 h; series mostly up to 57.5 µM; further: nearly all actives have a fitted effect of over 55% in size
# Procedure, shortened: (§3)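 Measured: luminescence after ATPlite addition (15 min, RT). Exposure: 48 h, 37 C, 5% CO2.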
# [8] = test system: OV90; test: as above; details: Gynecologic cancer cell panel viability, ATPlite luminescence, 48 h; series mostly up to 57.5 µM
# Procedure, shortened: as §3
# [9] = test system: PA-1; test: as above; details: Gynecologic cancer cell panel viability, ATPlite luminescence, 48 h; series mostly up to 57.5 µM
# Procedure, shortened: as §3
# [10] = test system: MCC-13; test: qHTS assay to identify novel small-molecules to repurpose for Merkel cell carcinoma treatment (AID 1296009); details: MCC and control cell lines, CellTiter-Glo viability, 72 h; series mostly up to 46 µM; further: nearly all actives have a fitted effect of over 60% in size
# Procedure, shortened: as §2
# [11] = test system: KB-3-1; test: Cytotoxic Profiling of Annotated Libraries Using Quantitative High-Throughput Screening (AID 1296008); details: Five cell lines viability, CellTiter-Glo ATP luminescence, 48-72 h; max response: stronger effect = lower value; further: nearly all actives have a fitted effect of over 60% in size
# Procedure, shortened: as §1
# [12] = test system: CAOV3; test: Primary qHTS to identify gynecologic anti-cancer compounds using libraries of approved drugs and bioactive compounds (AID 1345084); details: Gynecologic cancer cell panel viability, ATPlite luminescence, 48 h; series mostly up to 57.5 µM; further: nearly all actives have a fitted effect of over 55% in size
# Procedure, shortened: as §3
# [13] = test system: C33A; test: as above; details: Gynecologic cancer cell panel viability, ATPlite luminescence, 48 h; series mostly up to 57.5 µM
# Procedure, shortened: as §3
# [14] = test system: CASKI; test: as above; details: Gynecologic cancer cell panel viability, ATPlite luminescence, 48 h; series mostly up to 57.5 µM
# Procedure, shortened: as §3
# [15] = test system: Es-2; test: as above; details: Gynecologic cancer cell panel viability, ATPlite luminescence, 48 h; series mostly up to 57.5 µM
# Procedure, shortened: as §3
# [16] = test system: Hek293T; test: as above; details: Gynecologic cancer cell panel viability, ATPlite luminescence, 48 h, control line for the selectivity index; series mostly up to 57.5 µM
# Procedure, shortened: as §3
# [17] = test system: JEG-3; test: as above; details: Gynecologic cancer cell panel viability, ATPlite luminescence, 48 h; series mostly up to 57.5 µM
# Procedure, shortened: as §3
# [18] = test system: MCC-26; test: qHTS assay to identify novel small-molecules to repurpose for Merkel cell carcinoma treatment (AID 1296009); details: MCC and control cell lines, CellTiter-Glo viability, 72 h; activity change, negative = cytotoxicity: at 46 µM (top of the series); further: nearly all actives have a fitted effect of over 60% in size
# Procedure, shortened: as §2
# [19] = test system: SKOV3; test: Primary qHTS to identify gynecologic anti-cancer compounds using libraries of approved drugs and bioactive compounds (AID 1345084); details: Gynecologic cancer cell panel viability, ATPlite luminescence, 48 h; series mostly up to 57.5 µM; further: nearly all actives have a fitted effect of over 55% in size
# Procedure, shortened: as §3
# On the % scale 0 is the no-effect control and ±100 the full control effect; potency means the concentration at half of the fitted maximal effect; tags describe the fitted curve by direction and shape.
compound,measurement,setting,value
CCc1nn(CCCN2CCN(c3cccc(Cl)c3)CC2)c(=O)n1CCOc1ccccc1,Potency,[1],"inconclusive: 23.7 µM [inhibitor, single point]"
same,Potency,[2],"inconclusive: 29.9 µM [inhibitor, partial curve, poor fit]"
same,Potency,[3],"inconclusive: 18.8 µM [inhibitor, single point]"
same,Potency,[4],"inconclusive: 11.9 µM [inhibitor, partial curve, poor fit]"
same,Potency,[5],"inconclusive: 18.8 µM [inhibitor, partial curve]"
same,Potency,[6],"inconclusive: 26.6 µM [inhibitor, single point]"
same,Potency,[7],"inconclusive: 39.8 µM [cytotoxic, single point]"
same,Potency,[8],"inconclusive: 39.8 µM [cytotoxic, single point]"
same,Potency,[9],"inconclusive: 39.8 µM [cytotoxic, single point]"
Cc1ccc2nc(NCCN)c3ncc(C)n3c2c1,Potency,[1],"inconclusive: 33.2 µM [inhibitor, single point]"
same,Potency,[2],"inconclusive: 37.2 µM [inhibitor, single point]"
same,Potency,[3],"inconclusive: 13.2 µM [inhibitor, partial curve]"
same,Potency,[5],active: 20.9 µM
same,Potency,[6],"inconclusive: 9.35 µM [inhibitor, full curve]"
CC(C)OC(=O)CCCC=CC[C@@H]1[C@H](C=C[C@@H](O)COc2cccc(C(F)(F)F)c2)[C@H](O)C[C@@H]1O,Potency,[1],"inconclusive: 37.2 µM [inhibitor, single point]"
same,Potency,[2],"inconclusive: 33.2 µM [inhibitor, single point]"
same,Potency,[10],"inconclusive: 20.9 µM [inhibitor, partial curve, poor fit]"
same,Potency,[4],"inconclusive: 16.6 µM [inhibitor, single point]"
same,Potency,[6],"inconclusive: 20.9 µM [inhibitor, single point]"
Nc1ccc(O)c(C(=O)O)c1,outcome,[1],inactive
same,max response,[11],inactive: 2.58%
same,Potency,[10],inactive
COc1cc2nc(N3CCCN(C)CC3)nc(NC3CCN(Cc4ccccc4)CC3)c2cc1OC,Potency,[1],"inconclusive: 37.2 µM [inhibitor, single point]"
same,Potency,[2],"inconclusive: 33.2 µM [inhibitor, single point]"
same,Potency,[10],"inconclusive: 29.6 µM [inhibitor, single point]"
same,Potency,[4],active: 1.32 µM
same,Potency,[5],active: 14.8 µM
O=C(c1ccc(F)c(F)c1Nc1ccc(I)cc1F)N1CC(O)([C@H]2CCCCN2)C1,Potency,[1],active: 7.43 µM
same,Potency,[11],"inconclusive: 37.2 µM [inhibitor, partial curve, poor fit]"
same,Potency,[10],"inconclusive: 0.662 µM [inhibitor, full curve]"
same,Potency,[4],"inconclusive: 29.6 µM [inhibitor, single point]"
same,Potency,[6],inactive
NC(CO)(CO)CCc1ccc(Sc2cccc(OCc3ccccc3)c2)cc1Cl,Potency,[1],active: 26.4 µM
same,Potency,[11],"inconclusive: 33.2 µM [inhibitor, single point]"
same,Potency,[4],active: 23.5 µM
same,Potency,[5],"inconclusive: 18.7 µM [inhibitor, partial curve]"
CCN(CC)CCNC(=O)COc1ccc(OC)cc1,Potency,[1],"inconclusive: 0.133 µM [inhibitor, full curve, poor fit]"
same,Potency,[10],inactive
same,Potency,[12],inactive
COc1cc2c(cc1OC)CN(CCc1ccc(NC(=O)c3cc(OC)c(OC)cc3NC(=O)c3cnc4ccccc4c3)cc1)CC2,Potency,[1],"inconclusive: 20.2 µM [inhibitor, single point]"
same,outcome,[11],inactive
same,Potency,[13],"inconclusive: 14.1 µM [cytotoxic, single point]"
same,Potency,[12],"inconclusive: 11.2 µM [cytotoxic, single point]"
same,Potency,[14],"inconclusive: 11.2 µM [cytotoxic, single point]"
same,Potency,[15],"inconclusive: 12.6 µM [cytotoxic, single point]"
same,Potency,[7],"inconclusive: 28.2 µM [cytotoxic, single point]"
same,Potency,[16],"inconclusive: 11.2 µM [cytotoxic, partial curve, poor fit]"
same,Potency,[17],"inconclusive: 28.2 µM [cytotoxic, single point]"
same,Potency,[8],"inconclusive: 25.1 µM [cytotoxic, single point]"
CN(c1ncccc1CNc1nc(Nc2ccc3c(c2)CC(=O)N3)ncc1C(F)(F)F)S(C)(=O)=O,Potency,[1],active: 16.6 µM
same,Potency,[11],active: 7.43 µM
same,Potency,[10],"inconclusive: 18.7 µM [inhibitor, partial curve]"
same,Potency,[18],"inconclusive: 14.8 µM [inhibitor, partial curve]"
same,Potency,[3],active: 9.35 µM
same,Potency,[4],"inconclusive: 18.7 µM [inhibitor, partial curve]"
same,Potency,[5],active: 11.8 µM
N=c1ccn2c(n1)O[C@H]1[C@@H](O)[C@@H](CO)O[C@H]12,Potency,[1],"inconclusive: 11.8 µM [inhibitor, partial curve, poor fit]"
same,Potency,[10],"inconclusive: 2.35 µM [inhibitor, partial curve]"
same,Potency,[3],"inconclusive: 9.35 µM [inhibitor, partial curve]"
same,Potency,[4],"inconclusive: 1.87 µM [inhibitor, full curve, poor fit]"
CCN(CC)C(=S)SSC(=S)N(CC)CC,Potency,[1],"inconclusive: 37.2 µM [inhibitor, single point] and inconclusive: 33.5 µM [inhibitor, single point]"
same,Potency,[2],"inconclusive: 93.5 nM [inhibitor, full curve, poor fit] and inconclusive: 351 nM [inhibitor, full curve, poor fit] and inconclusive: 266 nM [inhibitor, full curve, poor fit]"
same,Potency,[6],"active: 935 nM and inconclusive: 394 nM [inhibitor, full curve, poor fit] and inconclusive: 841 nM [inhibitor, partial curve, poor fit]"
same,Potency,[13],"inconclusive: 316 nM [cytotoxic, full curve, poor fit] and inconclusive: 1.12 µM [cytotoxic, single point]"
same,Potency,[12],"active: 7.08 µM and inconclusive: 35.5 µM [cytotoxic, single point]"
same,Potency,[14],active: 35.5 µM
same,Potency,[15],"active: 15.8 µM and inconclusive: 35.5 µM [cytotoxic, single point]"
same,Potency,[7],"inconclusive: 35.5 µM [cytotoxic, single point]"
same,Potency,[16],"active: 8.91 µM and inconclusive: 22.4 µM [cytotoxic, partial curve, poor fit]"
same,Potency,[17],"active: 28.2 µM and inconclusive: 39.8 µM [cytotoxic, single point]"
same,Potency,[8],"active: 4.47 µM and inconclusive: 12.6 µM [cytotoxic, partial curve, poor fit]"
same,Potency,[9],"inconclusive: 3.55 µM [cytotoxic, full curve, poor fit] and inconclusive: 14.1 µM [cytotoxic, single point]"
COc1cccc(-c2ccc(NC(=O)C3=C(C(=O)O)CCC3)c(F)c2)c1,Potency,[1],"inconclusive: 3.32 µM [inhibitor, full curve]"
same,Potency,[11],"inconclusive: 13 µM [inhibitor, single point]"
same,Potency,[2],"inconclusive: 37.2 µM [inhibitor, single point] and inconclusive: 29.1 µM [inhibitor, single point]"
same,Potency,[3],"inconclusive: 26.4 µM [inhibitor, single point]"
same,Potency,[5],"inconclusive: 20.9 µM [inhibitor, partial curve]"
same,Potency,[14],inactive
same,Potency,[15],"inconclusive: 35.5 µM [cytotoxic, single point]"
same,Potency,[7],"inconclusive: 25.1 µM [cytotoxic, single point]"
same,Potency,[16],"inconclusive: 7.94 µM [cytotoxic, partial curve]"
same,Potency,[17],"inconclusive: 39.8 µM [cytotoxic, single point]"
same,Potency,[8],inactive
same,Potency,[9],"inconclusive: 11.2 µM [cytotoxic, partial curve, poor fit]"
same,Potency,[19],"inconclusive: 0.708 µM [rising, partial curve, poor fit]"
[O-][n+]1ccccc1SSc1cccc[n+]1[O-],Potency,[1],active: 0.731 µM
same,Potency,[11],"inconclusive: 29.1 µM [inhibitor, single point]"
same,Potency,[2],active: 0.164 µM
same,Potency,[4],active: 0.58 µM
same,Potency,[5],active: 0.092 µM
same,Potency,[6],active: 0.517 µM
same,Potency,[13],active: 1.12 µM
same,Potency,[12],active: 2.82 µM
same,Potency,[14],active: 2.51 µM
same,Potency,[15],active: 1 µM
same,Potency,[16],active: 0.501 µM
same,Potency,[17],active: 2 µM
same,Potency,[8],active: 1.78 µM
same,Potency,[19],active: 0.794 µM
